The whole screen tested about 310,000 compounds, of which about 18,000 (5.8%) were called active. This list was built around the results that the source calls inconclusive (neither active nor inactive); the mix of calls is not that of the screen. The call rests on the fitted dose curve; in most records, active means well fitted inhibition curve with a large enough effect; inconclusive means small, poorly fitted or top-dose-only effect, or another doubt; inactive means no such curve, though single readings can be large or run the other way. No potency is given beside an inconclusive call; the fits are too rough.
Experiment: Primary qHTS for delayed death inhibitors of the malarial parasite plastid, 48 hour incubation
Conditions: P. falciparum luciferase growth in erythrocytes; series mostly up to 28.7 µM
Summary of the method: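 Growth was read as firefly luciferase luminescence after a 48 h, 37 C, 5% CO2 exposure of compounds to reporter-bearing P. falciparum cultures (0.1% parasitemia, 2% hematocrit final) in Albumax-supplemented RPMI 1640.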
Potency means the concentration at half of the fitted maximal effect; tags describe the fitted curve by direction and shape.

| SMILES | Potency |
| --- | --- |
| Cc1ccsc1C(=O)C1CCCN(Cc2cccc(-n3cccn3)c2)C1 (stereo not given) | inconclusive [inhibitor, partial curve, poor fit] |
| N=c1n(CC(=O)c2ccc([N+](=O)[O-])cc2)c2ccccc2n1Cc1ccccc1Cl | inconclusive [inhibitor, single point] |
| O=C(c1ccccc1)c1c[nH]c2ccccc12 | inconclusive [inhibitor, single point] |
| Cc1cccc(NC(=O)c2nc[nH]c2C(=O)N2CCN(C(=O)OC(C)(C)C)CC2)c1 | inactive |
| CN(C)CC(O)COc1cccc(OCC(O)CN(C)C)c1 (stereo not given) | inconclusive [inhibitor, partial curve, poor fit] |
| Cc1ccc2nsnc2c1NC(=O)CCl | inconclusive [inhibitor, partial curve] |
| CC(C)OC(=O)CSc1nc(Cc2ccccc2)nc2ccccc12 | inconclusive [inhibitor, partial curve] |
| CC1Cc2cc(S(=O)(=O)N3CCCCC3)ccc2N1C(=O)C1CCC1 (stereo not given) | inconclusive [inhibitor, single point] |
| Cc1ncc(CN2CCC(CO)(CCc3ccccc3)CC2)s1 | inconclusive [inhibitor, partial curve, poor fit] |
| Cc1ccc(N2CC(C(=O)Nc3nnc(SCCN4CCOCC4)s3)CC2=O)cc1C (stereo not given) | inconclusive [inhibitor, single point] |
| CSc1ccc(/C=C/C(=O)NC(=O)c2ccccc2O)cc1 | inconclusive [inhibitor, full curve, poor fit] |
| CC(C)c1ccc(NC(=O)CCCN2C(=S)NC(C)(C)CC2C)cc1 (stereo not given) | inconclusive [inhibitor, partial curve] |
| CC1SC(c2ccc(F)cc2)NC1=O (stereo not given) | inactive |
| CCOC(CC(=O)NNC(=O)c1c(-c2c(Cl)cccc2Cl)noc1C)OCC | inconclusive [inhibitor, partial curve, poor fit] |
| Cc1ccc(NC(=S)Nc2ccc(Cl)c(Cl)c2)c(OC(F)F)c1 | inconclusive [inhibitor, single point] |
| C/C(=N\NC(=O)c1c(Cl)c(C)nn1C)c1ccc(NC(=O)c2ccncc2)cc1 | inconclusive [inhibitor, partial curve] |
| COc1cc(C2CC(=O)Nc3ccccc3S2)cc(OC)c1OC (stereo not given) | inconclusive [inhibitor, partial curve, poor fit] |
| C=CCn1c(SCC(=O)NC2CCCC2)nnc1-c1cccnc1 | inactive |
| Cc1cc(C(=O)N/N=C/c2cccc([N+](=O)[O-])c2)c(C)n1-c1ccccc1 | inconclusive [inhibitor, single point] |
| Cc1onc(-c2c(F)cccc2Cl)c1C(=O)Nc1ccccc1N1CCOCC1 | active: 1.85 µM |
| CCCCCCCCNC(=O)c1ccc(C)cc1 | inactive |
| COC(=O)c1ccc(NC(=O)C(OC)c2ccccc2)cc1 (stereo not given) | inactive |
| C=CCOc1ccc(/C=N\NC(N)=S)cc1 | inconclusive [inhibitor, partial curve, poor fit] |

| SMILES | Potency |
| --- | --- |
| O=S(=O)(NCC1(N2CCOCC2)CCCCC1)c1ccc(F)cc1 | inactive |
| Cn1cc(CN2CCN(Cc3ccccc3)C(CCO)C2)c(-c2ccccc2)n1 (stereo not given) | inactive |
| Cc1ccc(S(=O)(=O)N2CCN(c3ncnc4sccc34)CC2)cc1 | inconclusive [inhibitor, single point] |
| C/C(Cl)=C\Cn1c(O)c(N=NC(N)=S)c2ccccc21 | inconclusive [inhibitor, single point] |
| O=C(/C=C/c1ccccc1)NCC1(c2ccccc2)CCOCC1 | inconclusive [inhibitor, partial curve] |
| COc1cc(NC(=O)/C=C/c2ccccc2[N+](=O)[O-])cc(OC)c1 | inactive |
| Cc1c(C(=O)NCc2cccnc2)oc2ccc(S(=O)(=O)N3CCCCC3)cc12 | active: 5.22 µM |
| NC(=O)COc1ccc(-c2noc(COc3ccccc3[N+](=O)[O-])n2)cc1 | inactive |
| O=C(CC1SC(N2CCOCC2)=NC1=O)Nc1ccc(Cl)cc1 (stereo not given) | inconclusive [inhibitor, single point] |
| C=CCNc1nc(N)c(C(=C(C#N)C#N)c2ccccc2)s1 | inconclusive [inhibitor, single point] |
| COc1ccc(NC(=S)Nc2cc(S(=O)(=O)N3CCCCC3)ccc2OC)cc1 | inconclusive [inhibitor, partial curve, poor fit] |
| CCOC(=O)C1(CCOC)CCN(C(=O)Cc2ccsc2)CC1 | inactive |
| CSCC[C@@H](Nc1nc(-c2ccccc2)nc2c1oc1ccccc12)C(=O)O | inconclusive [inhibitor, single point] |
| COc1ccc2ccccc2c1CN1CCN(C(=O)c2ccco2)CC1 | active: 6.57 µM |
| O=C(Nc1ccnn1C1CCN(C(=O)c2cnsn2)CC1)c1cccc(F)c1 | inactive |
| COc1ccc([C@@H]2[C@@H]3C(=O)N(C(C)(C)C)C(=O)[C@@H]3[C@]3(Cc4ccccc4)C(=O)N(c4ccccc4)C(=O)N23)cc1 | inconclusive [inhibitor, single point] |
| Cc1ccccc1N1CCN(c2ncnc3scc(-c4cccs4)c23)CC1 | inconclusive [inhibitor, partial curve, poor fit] |
| COCc1c(C(=O)NC2CCCCCC2)oc2ccccc12 | inactive |
| Cc1cc(NC(=O)C2(c3ccccc3)CCCC2)no1 | inactive |
| CCOC(=O)C1CCN(CC(O)COCc2ccc3c(c2)OCO3)CC1 (stereo not given) | inactive |
| COc1cc2nc(CN(CCC(C)C)Cc3nc4cc(OC)c(OC)cc4c(=O)[nH]3)[nH]c(=O)c2cc1OC | inconclusive [inhibitor, single point] |
| O=C(CSc1oc(-c2ccccc2)nc1S(=O)(=O)c1ccccc1)NCC1CCCO1 (stereo not given) | inconclusive [inhibitor, full curve, poor fit] |

From PubChem BioAssay AID504832 (National Center for Advancing Translational Sciences (NCATS), 2011)
